Data taken from PubChem BioAssay AID624296 (National Center for Advancing Translational Sciences (NCATS), 2012).
Hit rate of the full screen: of about 350,000 compounds, about 9,900 (2.8%) were called active. Inconclusive results, whose numbers are uncertain, are shown with a selection of clear calls. Calls come from the whole dose curve; as a rule, active = well fitted activation curve with a large enough effect; inconclusive = small, poorly fitted or top-dose-only effect; inactive = no such curve, though single readings can be large or run the other way. No potency is given beside an inconclusive call; the fits are too rough.
Potency is the fitted concentration of half-maximal effect; tags give direction and shape of the fitted curve.

Assay: A quantitative high throughput screen for small molecules that induce DNA re-replication in MCF 10a normal breast cells. For activity, positive = re-replication: % of control where 0% means no effect. Note: nearly all actives have a fitted effect of over 50% in size.
Settings: MCF 10A DNA re-replication, Hoechst nuclear intensity, 48 h; activity, positive = re-replication: at 46.1 µM (top of the series)
For `CN1Cc2sc(NC(=S)NC(=O)c3ccccc3)c(C#N)c2CC1(C)C`, the Potency was inconclusive [activator, partial curve, poor fit]. In the case of `CC1=CC(=O)Nc2ccccc2S1`, the Potency is reported as inconclusive [activator, single point]. With `Cc1cc(C)c(C#N)c(SCC(=O)Nc2cc(C)on2)n1` the Potency was inconclusive [activator, single point]. With `CCOC(=O)N1CCN(c2nc(-c3cccc(OC)c3)cc(C(F)(F)F)n2)CC1` the Potency was inconclusive [activator, partial curve, poor fit]. In the case of `Cc1cc(C(=O)NNc2ccc(Cl)cc2)no1`, the Potency is reported as active: 7.31 µM. For `O=C(Cn1c(NCCO)nc2ccccc21)c1ccc(Cl)cc1Cl`, the Potency was inconclusive [activator, single point]. For `CC1CN(C(=O)COC(=O)c2cc(=O)c3ccccc3o2)CC(C)O1` (stereo not drawn), the “activity, positive = re-replication” value was inactive: -3.1%. For `COc1cccc(OC)c1OCCNC(C)(C)C`, the “activity, positive = re-replication” value was inactive: 1.43%. For `COc1ccc(C(=O)NCc2cnn(C)c2C)cc1OC1CCN(C(C)C)CC1`, the Potency was inconclusive [activator, partial curve]. With `COc1ccc(NC2=NC(=S)N(c3ccc(C)cc3)C23CCCCC3)cc1` the Potency was inconclusive [activator, full curve, poor fit]. For `Clc1ccccc1C1SCC2Nc3ccccc3CN21` (stereo not drawn), the Potency was inconclusive [activator, single point]. With `CC(OC(=O)c1ccc(Cl)c(S(=O)(=O)N2CCOCC2)c1)C(=O)Nc1ccc(S(N)(=O)=O)cc1` (stereo not drawn) the “activity, positive = re-replication” value was inactive: -22.1%. With `COc1cc(C2c3cc4c(cc3OC(NNC(N)=S)C2C)OCO4)cc(OC)c1OC` (stereo not drawn) the Potency was active: 1.46 µM. In the case of `COc1ccc(CCN2CC(C(=O)N(C)Cc3cccnc3)CC2=O)cc1OC` (stereo not drawn), the “activity, positive = re-replication” value is reported as inactive: -6.87%. In the case of `CCCCC#Cc1ccccc1CC(=O)Nc1ccccc1`, the Potency is reported as inconclusive [activator, partial curve, poor fit]. For `CSc1nc2sc3c(c2c(=O)n1C)CCCC3`, the Potency was inconclusive [activator, single point]. With `Cc1cc(Oc2cccc3c2S(=O)(=O)N(C2CCCC2)CC(COCc2ccccc2)O3)cc(C)c1C` (stereo not drawn) the “activity, positive = re-replication” value was inactive: 1.91%. In the case of `Cc1ccc(-n2ncc3c(NCc4ccc5c(c4)OCO5)ncnc32)c(C)c1`, the “activity, positive = re-replication” value is reported as inactive: 15.7%. For `Cc1ccc(NC(=O)c2ccc3nc(N4CCOCC4)sc3c2)c(Cl)c1`, the “activity, positive = re-replication” value was inactive: -5.81%. With `Brc1ccc(/C=N/Nc2ccccn2)cc1` the “activity, positive = re-replication” value was inactive: -4.67%. For `CC1CCC(C(C)C)C(OC(=O)C[n+]2cc(-c3ccc(Cl)cc3)n3c2CCCCC3)C1` (stereo not drawn), the Potency was inconclusive [activator, partial curve, poor fit]. For `CC(C)N(C(=O)Cn1cc(SCC(=O)NCc2ccco2)c2ccccc21)C(C)C`, the “activity, positive = re-replication” value was inactive: -0.454%. With `NC(=O)N/N=C/c1c(F)c(F)c(F)c(F)c1F` the Potency was inconclusive [activator, single point]. In the case of `COc1ccc(Cl)cc1N(CC(=O)Nc1ccc2c(c1)OCO2)S(C)(=O)=O`, the “activity, positive = re-replication” value is reported as inactive: 2.08%. In the case of `Cc1ccc(C2=NC(C(F)(F)F)(C(F)(F)F)c3c(n(-c4ccc(F)cc4)c(=O)[nH]c3=O)N2)cc1`, the Potency is reported as inconclusive [activator, single point]. With `CCN(C(=O)CSc1ncccn1)c1c(N)n(Cc2ccccc2)c(=O)[nH]c1=O` the “activity, positive = re-replication” value was inactive: 13.7%. With `Cc1ccc(C(=O)NNC(=O)c2ccc(S(=O)(=O)N3CCCCC3)cc2)cc1` the Potency was inconclusive [activator, full curve, poor fit]. With `COc1cc(/C=N/OCC(=O)Nc2ccc(OC(F)F)cc2)ccc1OCc1ccccc1` the Potency was inconclusive [activator, single point]. In the case of `OCCCNc1c2ccccc2nc2ccccc12`, the “activity, positive = re-replication” value is reported as inactive: -4.69%. With `O=C(Nc1ccc(N2CCN(Cc3ccccc3)CC2)cc1)c1cccnc1` the Potency was inconclusive [activator, partial curve, poor fit]. For `COc1ccc(C2C3=C(CC(C)(C)CC3=O)Oc3ncn(Cc4ccco4)c(=N)c32)cc1` (stereo not drawn), the Potency was inconclusive [activator, single point]. In the case of `OC(CC#CCN1CCCC1)(c1ccccc1)c1ccccc1`, the “activity, positive = re-replication” value is reported as inactive: -0.312%. In the case of `O=C(NCc1ccccc1F)C(=O)NCC1OCCCN1S(=O)(=O)c1cccs1` (stereo not drawn), the “activity, positive = re-replication” value is reported as inactive: 3.1%. For `Clc1cc(NCc2ccccc2)ncn1`, the Potency was inconclusive [activator, full curve, poor fit]. For `Cc1nnc(SCC(=O)Nc2cccc(Br)c2)s1`, the “activity, positive = re-replication” value was inactive: -1.56%. In the case of `O=C(NC1=CC(=O)c2ccccc2C1=O)c1ccccc1`, the Potency is reported as inconclusive [activator, single point]. For `O=C(NCC12CC3CC(CC(C3)C1)C2)c1cc2n(n1)C(C(F)(F)F)CC(c1ccco1)N2` (stereo not drawn), the Potency was inconclusive [activator, partial curve, poor fit]. With `CCn1c2ccccc2c2cc(NC(=O)CC(C)=O)ccc21` the Potency was inconclusive [activator, partial curve, poor fit]. With `Oc1[nH]c2ccccc2c1N=Nc1ccccn1` the “activity, positive = re-replication” value was inactive: -3.4%. For `CCCC(=O)Nc1cccc(-c2nc3ccccc3c(=O)o2)c1`, the “activity, positive = re-replication” value was inactive: 4.44%. In the case of `Cc1c(C(=O)O)sc2nc(/C=C/c3cccc(O)c3)[nH]c(=O)c12`, the Potency is reported as active: 7.31 µM. For `Cc1ccc(NC(=O)c2ccc3c(=O)n4c(nc3c2)CCC4)cc1S(=O)(=O)N(C)C`, the “activity, positive = re-replication” value was inactive: 0%. For `COc1nc2c(C)cccc2cc1-c1noc(-c2ccco2)n1`, the Potency was inconclusive [activator, single point]. With `Cc1c(NC(=O)Nc2ccc3c(c2)OCO3)cccc1[N+](=O)[O-]` the “activity, positive = re-replication” value was inactive: -1.75%. In the case of `O=NN(CCc1ccncc1)c1ccc(OCc2ccccc2)cc1`, the Potency is reported as inconclusive [activator, partial curve, poor fit]. For `Cc1cc(/C([O-])=C(/C(=S)Nc2ccc(F)cc2)[n+]2ccccc2)c(C)n1Cc1ccccc1Cl`, the Potency was inconclusive [activator, single point]. With `CCOC(=O)c1sc(NC(=O)CSc2nc(C)cc(-c3ccccc3)n2)c(C#N)c1C` the “activity, positive = re-replication” value was inactive: 9.07%. With `O=[N+]([O-])c1ccc(N/N=C/c2cccc(O)c2)cc1` the Potency was active: 18.4 µM. For `Cc1ccc(C(C)C)cc1OCCOCCN1CCCC1`, the Potency was inconclusive [activator, full curve]. For `C[C@]1(O)CC(=O)C=C[C@H]1Nc1ccccc1`, the Potency was inconclusive [activator, single point]. For `O=C(C=Cc1ccccc1)CC(c1ccccc1)N1CCOCC1` (stereo not drawn), the Potency was active: 3.66 µM. In the case of `CCN(CC)CCOC(=O)c1ccc(NC(=O)c2ccc(Cl)c(S(=O)(=O)N3CCCCCC3)c2)cc1`, the Potency is reported as inconclusive [activator, single point]. With `CCOc1ccc(CCNC(=O)C2CC(=O)N(c3ccc4c(c3)OCCO4)C2)cc1OCC` (stereo not drawn) the “activity, positive = re-replication” value was inactive: 0.526%. In the case of `N#Cc1ccc(CSC2=NCCN2)cc1`, the Potency is reported as inconclusive [activator, single point]. For `Cn1nc(-c2ccc(Cl)cc2)c2cc(C(=O)NCCCN3CCCC3)sc21`, the Potency was active: 23.1 µM. For `COc1cccc(CNC(=O)CN(C)S(=O)(=O)c2cnc[nH]2)c1`, the Potency was inconclusive [activator, partial curve, poor fit]. In the case of `C/C=C(\C)C(=O)NCCN1C2=NC[C@@H](C)N2C[C@H]1Cc1ccc(O)cc1`, the “activity, positive = re-replication” value is reported as inactive: -3.13%. With `Cc1ccc(/C=C/C(=O)Nc2nn[nH]n2)o1` the Potency was inconclusive [activator, partial curve, poor fit]. For `CCN(CC(=O)Nc1ccccc1C(F)(F)F)C(=O)c1ccc2[nH]c3c(c2c1)CC(C)CC3` (stereo not drawn), the Potency was inconclusive [activator, single point]. For `O=C(NNS(=O)(=O)c1ccccc1)c1ccc([N+](=O)[O-])cc1`, the Potency was inconclusive [activator, single point]. In the case of `CCn1nc(C)cc1C(=O)Sc1cccc(Cl)c1`, the Potency is reported as active: 23.1 µM. With `CCOC(=O)c1sc(N/N=C/c2ccc(N(C)C)cc2)nc1C` the Potency was inconclusive [activator, full curve, poor fit]. For `C=CCc1cc(Cl)ccc1OCCOCCNC(C)CC` (stereo not drawn), the Potency was inconclusive [activator, single point]. For `O=C(Nc1cccc(S(=O)(=O)c2cccc(NC(=O)C3CC3)c2)c1)C1CC1`, the “activity, positive = re-replication” value was inactive: -1.09%. With `O=C(Nc1ccccc1C(=O)O)c1cc(S(=O)(=O)N2CCCCC2)c(Cl)cc1Cl` the “activity, positive = re-replication” value was inactive: 2.16%. For `CC(NC(=O)COC(=O)COc1cccc2c1OC(C)(C)C2)c1ccccc1` (stereo not drawn), the Potency was inconclusive [activator, partial curve, poor fit]. In the case of `COc1ccc(C2C(C(=O)c3ccco3)=C(O)C(=O)N2CCc2ccccc2)cc1OC` (stereo not drawn), the Potency is reported as inconclusive [activator, partial curve, poor fit]. In the case of `COc1ccc(/C=N/Nc2nc(C)cc(-c3ccccc3)n2)cc1OC`, the Potency is reported as inconclusive [activator, single point]. In the case of `COc1ccc(CN2CN(C(C)C)CSC2=S)cc1`, the Potency is reported as active: 5.17 µM. For `Cc1ccc(-n2nnnc2SCC(=O)NNC(=O)c2ccco2)c(C)c1`, the Potency was active: 20.6 µM. For `Cc1ccc(-c2nc(N)sc2CC(=O)OCC(=O)NC2CCCC(C)C2C)cc1` (stereo not drawn), the Potency was inconclusive [activator, full curve, poor fit]. For `CCn1c(SCC(=O)Nc2ccccc2OC)nc2ccccc2c1=O`, the Potency was inconclusive [activator, single point]. With `O=C(NC1CCN(C(=S)Nc2ccc(F)cc2)CC1)c1ccco1` the Potency was inconclusive [activator, full curve, poor fit].
